# Some of the results follow.
# Tested on: PfSIP2 AP2 domain 1 (GST-tagged)
# Experiment: gcPBM binding intensity (ln(normalized median fluorescence intensity)); higher = stronger DNA binding
# Outline: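 Each value is the highest Masliner-normalised natural-log median intensity across replicate spots of either orientation of a probe. The probes were primer-extended double-stranded 36-bp intergenic genomic sequences on an Agilent 4 × 180k array, alongside negative controls, exposed for 1 h to GST-tagged P. falciparum DNA-binding domains expressed in E. coli. Bound protein was picked up with Alexa488 anti-GST antibody and scanned at 488 nm.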
row,Sequence,gcPBM binding intensity (ln)
1,TTGTTTGGTTATAATTGTACGCATGTAATTACATAT [XGTACX_site4972],7.33
2,TTTTATAGTCTTATGGGTACAAAATATTAACCCACG [XGTACX_site1131],6.99
3,ATATATATTTTATTATGTACTTACTTCTTTTCTTAA [XGTACX_site6163],7.21
4,ATTCACTGGTATGCATGAAAAAAAATATTATTATAA [CACACA_negctrl_site702],7.37
5,TATATATATTTATACACACACATATATTTATATATT [CACACA_site484],7.36
6,TTATGTGTATACTAAGAACACACAAGTTACTTGGTG [CACACA_site8467],6.59
7,TGAATACTTATGTTCGCACACATGCAAATTAAAAAA [CACACA_site4048],7.86
8,ATTTTGATAACCGTACGTACATATATATATATATAT [XGTACX_site6605],9.64
9,TTAGTGTATTAATTCTCACACACTAAGAAAAAAAAA [CACACA_site3878],6.93
10,ATAAATCCATGGGTAGTGCGCATTTTTTTTTTTTTT [GTGCAC_site9732],8.74
11,ATAAAATGTATATGAATGCACTTGAAGTTTTTTTTT,7.31
12,TCTCCTTGTTCCTTTTTTTTAAAAAAAAACATTAAA [CACACA_negctrl_site679],7.58
13,TATATGTGACATGAATGTACCCAAATTATATAAGAA [XGTACX_site3937],7
14,TATTCTTACACGTTTGCACACTAAAATATATATATA [CACACA_site435],8.63
15,CATAGGAACATAAGTTGTACGCTATACATACAACAT [XGTACX_site1054],7
16,ATTTAATATATTTATTGTACATATAAAATAAAAGAA [XGTACX_site2413],7.14
17,TAATAATAATACCAGCGTACATTTTTCTTTCCTACG [XGTACX_site4056],6.94
18,TGAAAATTAATAAAAAGTACATAGTCAGATTTGTGA [XGTACX_site2450],6.99
19,TCTGTGTTTTTGGGTACACACAAATAGCTTGTATAT [CACACA_site4002],7.16

row,Sequence,gcPBM binding intensity (ln)
1,TTCCTTAATCAATATTGTACTTTTTATAAATTTAGT [XGTACX_site3678],7.13
2,TATTTTTTCTTAAACACACACATATATATATATAAT [CACACA_site5567],7.27
3,ATAAAGAAAAGGAACACACAAATATGTAAATATGTA [CACACA_site6356],6.82
4,TTACACATAAATACCATATAAATATAATGCATATCT [CACACA_negctrl_site1731],7
5,TAAAATATTATCTACGCACACATTAAAATAAAAAAA [CACACA_site3709],7.17
6,AAAACATTATTCCATACACACCATACTTTTTAATAA [CACACA_site7326],7.3
7,CATTTGCACACGCACACACACATAAAAAGAAAAATA [CACACA_site6297],7.71
8,TATGTAGATAAATAAGCACACACCAAACATATAAAA [CACACA_site1182],7.16
9,ATCAGTCGAGATGACAGTACACAGTAGCCAGGAAAT [XGTACX_site4932],6.98
10,TATATATATTTAAAAAGTACAAAAAAAAAAAATGAA [XGTACX_site374],6.99
11,AATAATAAACACAATCAAATAAAATATGAAATATAA [GTGCAC_negctrl_site307],6.79
12,CCCTGAGCACTTTCGTGTACTAATAGTAACAATAAT [XGTACX_site1418],7.66
13,AAATGTTGAAATGATACACACATATAAATATAAATA [CACACA_site7229],6.94
14,AAACAAATGTATATGTGTACTTATTTTTTTGTATGT [XGTACX_site7134],7.18
15,TTAATTTGTAAATAATGTACATATAAATGGAAAGTA [XGTACX_site2743],7.69
16,TATTTATTAAAACACACACACACACCGACAAAATAA [CACACA_site4293],7.27
17,TAATAAAACATATATACACACATTATGTATACATAT [CACACA_site1703],6.93
18,TTAATATTTACAAAATGTACAGATTATTTATTGTTG [XGTACX_site1270],6.84
19,AAATATGTCAAATATACACACATAATAACTAGAATA [CACACA_site7151],6.91

row,Sequence,gcPBM binding intensity (ln)
1,AATAATTATAATAAGGGTACGTATCTCACAGGAAAA [XGTACX_site4187],7.17
2,TTTTTTAATATTTATACATGCATGCCGATTACTATA [TGCATGCA_site26],7.03
3,ACAATACAAATATATACACACATACATACATACATA [CACACA_site5699],7.37
4,ATATATATATATATATGTACATAATTAATAATTAGA [XGTACX_site5672],9.37
5,TAATATCATTTAGACACACACTCTTACAATATGTAA [CACACA_site5434],6.8
6,TCTATTAACTGATGTGCATGTTATAACCTAGAAGTA [TGCATGCA_site359],7.42
7,AGTTCGAATATATAAAGTACATAATTATATATTTGC [XGTACX_site2604],6.86
8,AAAAATCGATACAAGCGTACAAAATAAAATAAAAAT [XGTACX_site5546],7.09
9,ACCAATAATATACATACACACATAAAGGTTTATATA [CACACA_site315],7.14
10,TTACACATATTATATATATATAAAAAAAAAAAATAT [CACACA_negctrl_site1684],7.15
11,TAAATTGAGTATATTACACACATATAAATATATTAT [CACACA_site4027],6.88
12,TCTTATCCTACTTTTATTTTTACTTTTTTTTCTTAT [CACACA_negctrl_site111],7.07
13,TATATATATATATGTATATATGTATATCTATATTTA [CACACA_negctrl_site131],9.31
14,TGGATTCGTATATGTAGTACTATTTATATGTGATTT [XGTACX_site1581],7.12
15,AATATATACCAACATAAATATATATATATATATATA [TGCATGCA_negctrl_site334],9.89
16,TAATAAATATATAATTGTACTTAAAAGAATATAAAA [XGTACX_site2928],6.96
17,AAGTGTATATAAAAATGTACATATTTCGATTTAAAT [XGTACX_site4161],7.11
18,TCACATATTATCTTTACACACTATATATAAGTTTTA [CACACA_site2790],7.23

# Reference: the supplement of paper PMC11417369
